Test results: PubChem BioAssay AID1745853 (National Center for Advancing Translational Sciences (NCATS), 2022)
“And” between values parts separate entries of the source, which are not always exact repeats. Identical values can stand only once. The list shows a part of the results. Shown are side measurements of this screen, not its main read-out; they come without a call.

How the values were obtained:
Assay in all cases: Primary Screen for Target Class Profiling of Small Molecule Inhibitors of Methyltransferases
[1] = target: Glycine N-methyltransferase (Homo sapiens) (UniProt Q14749); conditions: purified enzyme, MTase-Glo SAH luminescence; measured here: GNMT inhibition; at 40 µM; stronger effect = lower value
Summary of the method: (§1)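 Each enzyme was assayed with SAM and its substrate. SAH formation detected by MTase-Glo luminescence; single-point 40 uM screen[…].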

[2] = target: Guanidinoacetate N-methyltransferase (Homo sapiens) (UniProt Q14353); conditions: purified enzyme, MTase-Glo SAH luminescence; measured here: GAMT inhibition; at 40 µM; stronger effect = lower value
Summary of the method: as §1

[3] = target: Histamine N-methyltransferase (Homo sapiens) (UniProt P50135); conditions: purified enzyme, MTase-Glo SAH luminescence; measured here: HNMT inhibition; at 40 µM; stronger effect = lower value
Summary of the method: as §1

[4] = target: Nicotinamide N-methyltransferase (Homo sapiens) (UniProt P40261); conditions: purified enzyme, MTase-Glo SAH luminescence; measured here: NNMT inhibition; at 40 µM; stronger effect = lower value
Summary of the method: as §1

[5] = target: Phenylethanolamine N-methyltransferase (Homo sapiens) (UniProt P11086); conditions: purified enzyme, MTase-Glo SAH luminescence; measured here: PNMT inhibition; at 40 µM; stronger effect = lower value
Summary of the method: as §1
% is scaled to controls: 0 for no effect and ±100 for the full control effect.

| Structure (SMILES) | activity change, negative = inhibition [1] | activity change, negative = inhibition [2] | activity change, negative = inhibition [3] | activity change, negative = inhibition [4] | activity change, negative = inhibition [5] |
| --- | --- | --- | --- | --- | --- |
| C[C@@H]1C[C@H]2O[C@@H]2/C=C\C=C\C(=O)Cc2c(Cl)c(O)cc(O)c2C(=O)O1 | -5.03% | 2.29% and -2.91% | 2.28% | -8.13% and -17% | -0.97% and -8.81% |
| COC(=O)c1cccc(CNCC2=CC(C)(C)COc3ccc(OC)cc32)c1 | -3.59% | 2.5% | -7.26% | -16.4% | -2.34% |
| Cc1cccc(-c2nnn3c2nc(NCCc2ccc(S(N)(=O)=O)cc2)c2cc(Cl)ccc23)c1 | -6.01% | 0.105% | -5.99% | -15.4% | -8.39% |
| O=C(Cn1c(=O)oc2cc(S(=O)(=O)NC3CCCC3)ccc21)NCc1ccccc1Cl | -0.564% | 1.39% | 5.23% | 6.05% | -3.87% |
| Cc1ccccc1NC(=O)Cn1nc2n(CC(C)C)c(=O)c3ccc(C(=O)NC4CCCC4)cc3n2c1=O | 7.37% | 2.19% | 12.5% | 6.58% | 7.67% |
| O=C(c1ccccc1)N1CCCC(C(=O)N2CCC(c3nc4ccncc4[nH]3)C2)C1 (stereo not given) | -6.99% | -5.91% | -6.71% | -15% | 1.89% |
| Cc1cc2sc(NC(=O)Cc3ccccc3)nc2cc1Cl | -9.87% | -5.39% | 8.66% | -16.7% | -0.842% |
| CN1CCN([C@H]2CCN(Cc3ccc4occc4c3)C[C@H]2CCC(=O)O)CC1 | -1.16% | -0.75% | 0.112% | 1.93% | -3.62% |
| Cc1ccc(NC(=O)N[C@H]2C[C@@](O)(C(=O)N[C@H]3CCCNC3=O)C[C@@H](O)[C@@H]2O)cc1 | -3.25% | -7.1% | -2.71% | -10.6% | -9.59% |
| CCc1cc2c(cc3n2CC(C(=O)NC2CCCCCC2)(c2ccccc2)N(Cc2cccc(F)c2)C3=O)s1 (stereo not given) | -1.33% | 0.129% | 3.15% | -3.98% | -5.31% |
| Cn1c(=O)n(C)c2cc(S(=O)(=O)Nc3cccc4c3CCCC4)ccc21 | -0.701% | 0% | -0.08% | -5% | -0.975% |
| Cc1c(NC(=O)c2cc3c(s2)CCCC3)cccc1-c1cn(C)c(=O)c(Nc2ccc(C3C(=O)N(C)CCN3C)cc2)n1 (stereo not given) | -10.7% | -8.41% | -2.69% | -24.2% | -14% |
| COCCN1C(=O)c2cc3occc3n2CC1(C)C(=O)NC1CCCCCCC1 (stereo not given) | 5.73% | 7.99% | 9.05% | 4.26% | 3.02% |
| CCc1ccccc1NC(=O)Cn1c(=O)oc2cc(S(=O)(=O)N3CCCCC3C)ccc21 (stereo not given) | 14.8% | 0% | 8.41% | 6.1% | 3.81% |
| Cn1c(=O)c2ccc(C(=O)NC3CCCCC3)cc2n2c(=O)n(Cc3cccc(F)c3)nc12 | -3.89% | 0.844% | -1.75% | -5.13% | -3.03% |
| COc1ccc(CNC(=O)c2ncn3c2C(=O)N(C2CC2)C(C)(C(=O)NCc2ccc(OC)cc2)C3)cc1 (stereo not given) | 0.444% | 0.595% | 7.77% | 1.71% | 5.03% |
